# Test results published in the RNAGym collection of RNA variant scans (doi:10.1101/gad.245936.114).
# Variants at the floor of the assay are shown more often than the library holds them.
# B1: tRNA (parent)
# chain: CUCUCGGUAGCCAAGUUGGUUUAAGGCGCAAGACUUUAAUUUAUCACUACGAAAUCUUGAGAUCGGGCGUUCGACUCGCCCCCGGGAGAUUUUUUCCUCGAGCAA
# Variants of: B1
# Assay: nonsense suppression (GFP-seq) (ratio to wild type); higher = more function; SUP4oc tRNA, yeast GFP reporter sort-seq
# Procedure, shortened: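 To measure nonsense suppression, tRNA variants from a library carrying ~3% random mutations were integrated into the yeast genome alongside RFP and a GFP ochre reporter under galactose control. Growth took place in raffinose/galactose medium supplemented with 80 mg/L adenine, followed by sorting into GFP/RFP bins and Illumina sequencing of each bin (phred ≥30). For each variant with ≥100 reads and ≥30 cells, the bin median GFP/RFP values were weighted by its estimated cell share per bin and referenced to the unmutated parent tRNA.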
row,Variant,nonsense suppression
1,CUCUCGGUUGCCAAGUUGGUUUAAGGCGCAAGACUUUAAUUUAUCACUACGAAAUCUUGAGAUCGGGCGUUCGACUCGCCCCCGGUAGAUUUUUUCCUCGAGCAA [A9U G86U],≤ 0.026
2,CUCUCGGUUGCCAAGUUGGUUUAAGGCGCAAGACUUUAAUUUAUCACUACGAAAUCUUGAGAUCGGGCGUUCGACUCGCCCCCGGGAAAUUUUUUCCUCGAGCAA [A9U G88A],0.0329
3,CUCUCGGUUGCCAAGUUGGUUUAAGGCGCAAGACUUUAAUUUAUCACUACGAAAUCUUGAGAUCGGGCGUUCGACUCGCCCCCGGGAUAUUUUUUCCUCGAGCAA [A9U G88U],≤ 0.026
4,CUCUCGGUUGCCAAGGUGGUUUAAGGCGCAAGACUUUAAUUUAUCACUACGAAAUCUUGAGAUCGGGCGUUCGACUCGCCCCCGGGAGAUUUUUUCCUCGAGCAA [A9U U16G],0.202
5,CUCUCGGUUGCCAAGUUGGGUUAAGGCGCACGACUUUAAUUUAUCACUACGAAAUCUUGAGAUCGGGCGUUCGACUCGCCCCCGGGAGAUUUUUUCCUCGAGCAA [A9U U20G A31C],≤ 0.026
6,CUCUCGGUUGCCAAGUUGGGUUAAGGCGCAAGACUUUAAUUUAUCACUACGAAAUCUUGAGAUCGGGCGUUCGACUCGCGCCCGGGAGAUUUUUUCCUCGAGCAA [A9U U20G C80G],≤ 0.026
7,CUCUCGGUUGCCAAGUUGGUCUAAGGCGCAAGGCUUUAAUUUAUCACUACGAAAUCUUGAGAUCGGGCGUUCGACUCGCCCCCGGGAGAUUUUUUCCUCGAGCAA [A9U U21C A33G],≤ 0.026
8,CUCUCGGUUGCCAAGUUGGUCUAAGGCGCAAGACUUUAAUUUAUCACUACGAAAUCUUGAGAUCGGGGGUUCGACUCGCCCCCGGGAGAUUUUUUCCUCGAGCAA [A9U U21C C68G],≤ 0.026
9,CUCUCGGUUGCCAAGUUGGUCUAAGGCGCAAGACUUUAAUUUAUCACUACGAAAUCUUGAGAUCGGGCGUUCGACUCGCCCCCGGGAUAUUUUUUCCUCGAGCAA [A9U U21C G88U],≤ 0.026
10,CUCUCGGUUGCCAAGUUGGUGUAAGGCGCAAGACAUUAAUUUAUCACUACGAAAUCUUGAGAUCACGCGUUCGACUCGCCCCCGGGAGAUUUUUUCCUCGAGCAA [A9U U21G U35A G65A G66C],≤ 0.026
11,CUCUCGGUUGCCAAGUUGGUUGAAGGCGCCAGACUUUAAUUUAUCACUACGAAAUCUUGAGAUCGGGCGUUCGACUCGCCGCCGGGAGAUUUUUUCCUCGAGCAA [A9U U22G A30C C81G],≤ 0.026
12,CUCUCGGUUGCCAAGUUGGUUGAAGGCGCAAGACUUUAAUUUAUCACUACGAAACCUUGAGCUCGGGCGUUCGACUCGCCCCCGGGAGAUUUUUUCCUCGAGCAA [A9U U22G U55C A62C],≤ 0.026
13,CUCUCGGUUGCCAAGUUGGUUUAAGGCGCAAGACGUUAAUUUAUCACUACGAAAUCUUGAGAUCGGGCGUUCAUCUCGCCCCCGGGAGAUUUUUUCCUCGAGCAA [A9U U35G G73A A74U],≤ 0.026
14,CUCUCGGUUGCCAAGUUGGUUUAAGGCGCAAGACUUUAAUUUAUCACUACGAAAACUUGAGAUCGGGCGUUCGACUCGCCCCCGGGAGAUUUUUUCCUCGAGCAA [A9U U55A],≤ 0.026
15,CUCUCGGUUGCCAAGUUGGUUUAAGGCGCAAGACUUUAAUUUAUCACUACGAAAACUUGAGAUCGGGCGUUCGACUCGCCCCCAGGAGAUUUUUUCCUCGAGCAA [A9U U55A G84A],≤ 0.026
16,CUCUCGGUUGCCAAGUUGGUUUAAGGCGCAAGACUUUAAUUUAUCACUACGAAAACUUGAGAUCGGGCGUUCGACACGCCCCCGGGAGAUUUUUUCCUCGAGCAA [A9U U55A U76A],≤ 0.026
17,CUCUCGGUUGCCAAGUUGGUUUAAGGCGCAAGACUUUAAUUUAUCACUACGAAACCUUGAGAUCGGGCCUUCGACUCGCCCCCGGGAGAUUUUUUCCUCGAGCAA [A9U U55C G69C],≤ 0.026
18,CUCUCGGUUGCCAAGUUGGUUUAAGGCGCAAGACUUUAAUUUAUCACUACGAAAUCAUGAGAUCGGGCAUUCGACUCGCUCCCGGGAGAUUUUUUCCUCGAGCAA [A9U U57A G69A C80U],≤ 0.026
19,CUCUCGGUUGCCAAGUUGGUUUAAGGCGCAAGACUUUAAUUUAUCACUACGAAAUCCUGAGAUCGGGCGUUCGACUCGCCCCCGGGAGAUUUUUUCCUCGAGCAA [A9U U57C],≤ 0.026
20,CUCUCGGUUGCCAAGUUGGUUUAAGGCGCAAGACUUUAAUUUAUCACUACGAAAUCUGGAGAUCAGGCGUUCGACUCGCCCCCGGGAGAUUUUUUCCUCGAGCAA [A9U U58G G65A],≤ 0.026
21,CUCUCGGUUGCCAAGUUGGUUUAAGGCGCAAGACUUUAAUUUAUCACUACGAAAUCUUGAGAACCGGCCUUCGACUCGCCCCCGGGAGAUUUUUUCCUCGAGCAA [A9U U63A G65C G69C],≤ 0.026
22,CUCUCGGUUGCCAAGUUGGUUUAAGGCGCAAGACUUUAAUUUAUCACUACGAAAUCUUGAGAGCGGGCGUUCAACUCGCCCCCGGGAGAUUUUUUCCUCGAGCAA [A9U U63G G73A],≤ 0.026
23,CUCUCGGUUGCCAAGUUGGUUUAAGGCGCAAGACUUUAAUUUAUCACUACGAAAUCUUGAGAUCGGGCGUGCGACUCGCCCCCUGGAGAUUUUUUCCUCGAGCAA [A9U U71G G84U],≤ 0.026
24,CUCUCGGUAACCCAGUUGGUUUAAGGCGCAAGACUUUAAUUUAUCACUACGAAAUCUUGAGAUCGGGCGUUCGACUCGCGCCCGGGAGAUUUUUUCCUCGAGCAA [G10A A13C C80G],≤ 0.026
25,CUCUCGGUAACCGAGUUGGUUUAAGGCGCUAGACUUUAAUUUAUCACUACGAAAUAUUGAGAUCGGGCGUUCGACUCGCCCACGAGAGAUUUUUUCCUCGAGCAA [G10A A13G A30U C56A C82A G85A],≤ 0.026
26,CUCUCGGUAACCUAGUUGGUUUAAGGCGCAAGACUUUAAUUUAUCACUACGAAAUCUUUAGAUCGGGCGUUCGACUCGCCCCCGGGAGAUUUUUUCCUCGAGCAA [G10A A13U G59U],≤ 0.026
27,CUCUCGGUAACCACGUUGGUUUAAGGCGCAAGACUUUAAUUUAUCACUACGAAAUCUUGAGAUCGGGCGUUCGACUCGCCCCCGGGAGCUUUUUUCCUCGAGCAA [G10A A14C A89C],≤ 0.026
